Reference: PubChem BioAssay AID1508624 (National Center for Advancing Translational Sciences (NCATS), 2021)
About 120 (0.25%) of roughly 48,000 compounds were called active. Not shown: some 4% with an inconclusive outcome. Calls follow the shape of the dose curve; as a rule, active = well fitted activation curve with a large enough effect; inconclusive = small, poorly fitted or top-dose-only effect, or another doubt; inactive = no such curve, though single readings can be large or run the other way. This is one part of the list.

assay: Primary qHTS for Identification of Small Molecule Activators of Huntingtin-Antisense Promoter Activity; settings: HEK293 HTT-AS promoter firefly luciferase reporter (activity 0% = vehicle and -100% = no light), 24 h; series mostly up to 57.5 µM; activity change, positive = activation: at the top concentration; also: nearly all actives have a fitted effect of over 55% in size
Outline: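 Luminescence was read after Dual-Glo reagent and a 10 min room-temperature incubation. Values were normalized to vehicle (0% activity) and zero RLU (-100% activity). Reporter HEK293 cells had been exposed to compounds (up to 57.5 uM final) for 24 h.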

Activity change, positive = activation, inactive:
CC(C)(C)c1ccc(C(=O)NCCc2csc(-c3ccc(Cl)cc3)n2)cc1 -13.2%, COc1ccc(C(=O)Nc2ccc(N(C)Cc3ccccc3)c(C(=O)O)c2)cc1 -5.7%, CCOC(=O)Cn1c(=O)n(CC2CCCO2)c2nc(-c3ccccc3)nc(C(N)=O)c21 (centres undefined) -3.38%, CCOC(=O)C1=C(CN2CCN(c3ccccc3OC)CC2)NC(=O)NC1c1ccccc1 (centres undefined) -32.7%, Cc1cc(C)cc(NC(=O)N2CCC(CN3CCOCC3)CC2)c1 -3.9%, CC(C)NC(=O)N1[C@H](c2cccs2)[C@@H](C)C(=O)[C@@H](C)[C@@H]1c1cccs1 -14.1%, O=C(Nc1ccc(C(=O)O)c(O)c1)c1ccccc1 -3.93%, O=C(CN1CCCN(Cc2ccccc2F)S1(=O)=O)Nc1ccc(F)c(Cl)c1 -19.3%, Cc1ccc(CNCc2ccccc2Cl)s1 20.9%, COc1ccc(-c2nnc(SCC(=O)NCCC(C)C)nc2-c2ccc(OC)c(OC)c2)cc1OC -24.5%, COCc1cc(C)nc2c1C(=O)NC(c1ccc(F)cc1)N2Cc1ccccc1 (centres undefined) -13.5%, COC(=O)c1cc2oc(C)cc2n1CC(=O)Nc1ccc(C(C)C)cc1 -1.11%, CCCCNC(=O)c1ccc2c(=O)n(Cc3ccc(OC)cc3)c(=O)[nH]c2c1 -7.4%, Cc1cc(S(=O)(=O)C(CNC(=O)c2ccc(F)c(F)c2)c2cccs2)ccc1F (centres undefined) -8.97%, Cc1ccc(S(=O)(=O)n2nc(-c3ccc(Cl)cc3)nc2NCc2ccc(F)cc2)cc1 -4.57%, Cc1cc(C)c2c(CC(=O)Nc3ccc(S(=O)(=O)Nc4nc(C)cc(C)n4)cc3)coc2c1 -35.8%, COc1ccc(CNC(=O)c2cc3cc(OC)ccc3oc2=O)cc1 -5.68%, CC[C@]1(O)C[C@H]2CN(CCC3=c4ccccc4=N[C]3[C@@](C(=O)OC)(c3cc4c(cc3OC)N(C)[C@H]3[C@@](O)(C(N)=O)[C@H](O)[C@]5(CC)C=CCN6CC[C@]43[C@@H]65)C2)C1 -33.1%, Cc1ccc(-c2ccc(=O)n(CC(=O)NCCc3ccccc3)n2)cc1 -8.58%, O=S(=O)(NCCc1csc2nc(-c3ccccc3)nn12)c1cc(F)ccc1F -21.1%, Cc1ccc(-n2ncc3c(Nc4cccc(C(=O)O)c4)ncnc32)cc1 -22.5%, Cc1cccc(/C=C/c2onc(C)c2S(=O)(=O)N2CCC(C(=O)N3CCCCC3)CC2)c1 -32.7%, COc1ccc(-c2[nH]c(-c3ccc(Cl)cc3)nc2SCC(=O)NCC2CCCO2)cc1 (centres undefined) -22.5%, CCCCn1cnc2cc(NCc3ccccc3Cl)ccc21 -9.58%, Cc1ccc(NC(=O)C(=O)NCC(c2cccnc2)N2CCN(Cc3ccccc3)CC2)cc1F (centres undefined) -22.7%, CCCSCCCNC(=O)C1CCN(c2nc3ccccc3nc2C(F)(F)F)CC1 -15.3%, CCc1ccccc1NS(=O)(=O)c1ccc2[nH]cc(C(=O)N(CC)Cc3ccccc3)c(=O)c2c1 -18.3%, CCCc1ccc(OCC(=O)Nc2sc(C(=O)OCC)c(C)c2C(=O)OCC)cc1 -0.0748%, Cc1ccc(C)c(N2CCN(S(=O)(=O)c3ccc4c(c3)C(C(C)C)C(=O)N4)CC2)c1 (centres undefined) -33.6%, CSc1ncc(C(=O)NCc2ccccc2F)c(-c2ccccc2)n1 -14.3%, COc1cccc(-c2nc(CS(=O)(=O)CC(=O)N3CCN(c4cc(C)ccc4C)CC3)c(C)o2)c1 -47%, CCc1ccc(C2CC(=O)c3c([nH]c(C(=O)OC4CCCC4)c3C)C2)cc1 (centres undefined) 13.8%, CCOC(=O)c1ccc(CN(Cc2ccc(F)cc2)S(=O)(=O)c2ccc(F)c(C(=O)Nc3c(C)cccc3C)c2)cc1 -11.2%, COc1ccc(OC)c(C2CC(=O)Nc3c2c(=O)[nH]c2ncnn32)c1 (centres undefined) 1.47%, COc1ccc(C2NC(=O)N(C)C3=C2C(=O)N(c2ccc(C(=O)O)cc2)C3)cc1 (centres undefined) -3.89%, CCOc1ccc(NC(=O)Cn2c(=O)n(CCCCCC(=O)NCc3ccccc3)c(=O)c3sccc32)cc1 1.17%, CCc1ccc2occ(CC(=O)Nc3c(C(=O)c4ccc(C)cc4)oc4ccccc34)c2c1 -5.05%, COc1ccc(S(=O)(=O)Nc2c(C)nc3nc[nH]n3c2=O)cc1 -2.17%, O=[N+]([O-])c1cccc(S(=O)(=O)NCCNS(=O)(=O)c2cccc([N+](=O)[O-])c2)c1 -20%, Cc1ccc2c(CNCc3ccc(C)o3)c(C(=O)O)n(Cc3ccccc3C)c2c1 -28%, COC(=O)c1ccccc1NC(=O)C1=CC(c2cccs2)=NS(=O)(=O)N1C -19.5%, COc1ccc(-n2nc3cc(C)c(NC(=O)c4ccc(-c5ccc(Cl)cc5)o4)cc3n2)cc1 8.03%, Cc1cc(OCC(=O)Nc2cc(-c3nc4ncccc4o3)ccc2C)ccc1Cl 2.48%, Cc1ccc(S(=O)(=O)c2nnn(-c3ccc(F)c(Cl)c3)c2N)cc1 -23.4%, COc1ccc(OCc2ccc(-c3nc(C#N)c(NC(C)c4ccccc4)o3)o2)cc1 (centres undefined) -13.6%, CCOc1ccc2nc(N3CCCC(C(=O)NCCc4ccc(OCC)c(OCC)c4)C3)sc2c1 (centres undefined) 23.3%, Cc1cccc(C)c1Nc1c(-c2ccccn2)nc2c(C)cccn12 -32%, Cc1nn(CC(=O)Nc2ccc(OC(F)(F)F)cc2)c(=O)c2c(C)n(-c3ccc(Cl)cc3)nc12 -24.4%, COc1ccc(CCNC(=O)c2nc(-c3ccc(Cl)cc3)n3c2CCCCC3)c(OC)c1 -30%, O=C(Cc1cccs1)NC1CC(=O)N(c2ccc(F)cc2)C1 (centres undefined) -15.4%, COc1ccc(-c2nc3ccccc3s2)cc1NC(=O)c1ccccc1F -9.41%, Cc1oc(-c2ccc(C(=O)NCc3ccccc3)cc2)nc1CN1CCc2ccccc21 -37.1%, COc1ccc(-c2csc3ncnc(Nc4cccc(OC)c4)c23)cc1 -10.5%, CSc1cccc(NC(=O)Nc2ccccc2OCc2cc(=O)n3cc(C)ccc3n2)c1 17.3%, CCOCCCNC(=O)c1ccc(-n2c(-c3ccccc3)cc3c2CCC(C)C3)cc1 (centres undefined) -47.9%, CCC(=O)N1CCc2cc(Br)cc(S(=O)(=O)CCC(=O)N3CCN(c4cccc(C)c4)C(C)C3)c21 (centres undefined) 1.06%, CCc1ccc(S(=O)(=O)Nc2ccc3c(c2)n(C)c(=O)c(=O)n3C)cc1 -36.7%, Cc1cc(N)c2cc(NC(=O)Nc3ccc4nc(C)cc(N)c4c3)ccc2n1 -11%, Cc1ccc2c(c1)C(c1ccc(F)cc1)N(C(=O)c1ccc(S(=O)(=O)N3CCCCC3)cc1)CC(=O)N2 (centres undefined) -21.4%
